Measurements published in PMC9911399, “Two distinct binding modes provide the RNA-binding protein RbFox with extraordinary sequence specificity”.
Positions count from the first letter of the chain named. The list shows a part of the results.

B1: GGCGAUA (DNA:RNA)
RNA: GGGAGACCGGAAUUCAGAUUGUCCGGCGAUAUUAAAUCCCGUCGUAGCCACCA
DNA 1: CAATCTGAATTCCGGTCTCCC
DNA 2: TGGTGGCTACGACGGGATT
B2: AGUCAGU (DNA:RNA)
RNA: B1 RNA with G25A, C27U, G28C, U30G, A31U
DNA 1: CAATCTGAATTCCGGTCTCCC
DNA 2: TGGTGGCTACGACGGGATT
B3: UCAUUGG (DNA:RNA)
RNA: GGGAGACCGGAAUUCAGAUUGUCCUCAUUGGUUAAAUCCCGUCGUAGCCACCA
DNA 1: CAATCTGAATTCCGGTCTCCC
DNA 2: TGGTGGCTACGACGGGATT
B4: CGCGGCA (DNA:RNA)
RNA: B1 RNA with G25C, A29G, U30C
DNA 1: CAATCTGAATTCCGGTCTCCC
DNA 2: TGGTGGCTACGACGGGATT
B5: CAGAACU (DNA:RNA)
RNA: B1 RNA with G25C, G26A, C27G, G28A, U30C, A31U
DNA 1: CAATCTGAATTCCGGTCTCCC
DNA 2: TGGTGGCTACGACGGGATT
B6: AGAGGUG (DNA:RNA)
RNA: B1 RNA with G25A, C27A, A29G, A31G
DNA 1: CAATCTGAATTCCGGTCTCCC
DNA 2: TGGTGGCTACGACGGGATT
B7: CUUGGGU (DNA:RNA)
RNA: B1 RNA with G25C, G26U, C27U, A29G, U30G, A31U
DNA 1: CAATCTGAATTCCGGTCTCCC
DNA 2: TGGTGGCTACGACGGGATT
B8: AGACAUU (DNA:RNA)
RNA: B1 RNA with G25A, C27A, G28C, A31U
DNA 1: CAATCTGAATTCCGGTCTCCC
DNA 2: TGGTGGCTACGACGGGATT
B9: GGUCGUA (DNA:RNA)
RNA: B1 RNA with C27U, G28C, A29G
DNA 1: CAATCTGAATTCCGGTCTCCC
DNA 2: TGGTGGCTACGACGGGATT
B10: UGGAUUU (DNA:RNA)
RNA: B1 RNA with G25U, C27G, G28A, A29U, A31U
DNA 1: CAATCTGAATTCCGGTCTCCC
DNA 2: TGGTGGCTACGACGGGATT
B11: UAUAAUC (DNA:RNA)
RNA: B1 RNA with G25U, G26A, C27U, G28A, A31C
DNA 1: CAATCTGAATTCCGGTCTCCC
DNA 2: TGGTGGCTACGACGGGATT
B12: AGUUCAC (DNA:RNA)
RNA: B1 RNA with G25A, C27U, G28U, A29C, U30A, A31C
DNA 1: CAATCTGAATTCCGGTCTCCC
DNA 2: TGGTGGCTACGACGGGATT
B13: GCACAGG (DNA:RNA)
RNA: B3 RNA with U25G, U28C, U29A
DNA 1: CAATCTGAATTCCGGTCTCCC
DNA 2: TGGTGGCTACGACGGGATT
B14: GAGGCUU (DNA:RNA)
RNA: B1 RNA with G26A, C27G, A29C, A31U
DNA 1: CAATCTGAATTCCGGTCTCCC
DNA 2: TGGTGGCTACGACGGGATT
B15: AAAAUGC (DNA:RNA)
RNA: B3 RNA with U25A, C26A, U28A, G31C
DNA 1: CAATCTGAATTCCGGTCTCCC
DNA 2: TGGTGGCTACGACGGGATT
B16: GAGCCUC (DNA:RNA)
RNA: B1 RNA with G26A, C27G, G28C, A29C, A31C
DNA 1: CAATCTGAATTCCGGTCTCCC
DNA 2: TGGTGGCTACGACGGGATT
B17: UGCACGC (DNA:RNA)
RNA: B1 RNA with G25U, G28A, A29C, U30G, A31C
DNA 1: CAATCTGAATTCCGGTCTCCC
DNA 2: TGGTGGCTACGACGGGATT
B18: AUCUUUG (DNA:RNA)
RNA: B3 RNA with U25A, C26U, A27C, G30U
DNA 1: CAATCTGAATTCCGGTCTCCC
DNA 2: TGGTGGCTACGACGGGATT
B19: ACCCGUG (DNA:RNA)
RNA: B1 RNA with G25A, G26C, G28C, A29G, A31G
DNA 1: CAATCTGAATTCCGGTCTCCC
DNA 2: TGGTGGCTACGACGGGATT
B20: CACACAG (DNA:RNA)
RNA: B1 RNA with G25C, G26A, G28A, A29C, U30A, A31G
DNA 1: CAATCTGAATTCCGGTCTCCC
DNA 2: TGGTGGCTACGACGGGATT
B21: AGUGGAG (DNA:RNA)
RNA: B1 RNA with G25A, C27U, A29G, U30A, A31G
DNA 1: CAATCTGAATTCCGGTCTCCC
DNA 2: TGGTGGCTACGACGGGATT
B22: UAUGUGG (DNA:RNA)
RNA: B3 RNA with C26A, A27U, U28G
DNA 1: CAATCTGAATTCCGGTCTCCC
DNA 2: TGGTGGCTACGACGGGATT
B23: AGCGGGA (DNA:RNA)
RNA: B1 RNA with G25A, A29G, U30G
DNA 1: CAATCTGAATTCCGGTCTCCC
DNA 2: TGGTGGCTACGACGGGATT
B24: CUUGGGA (DNA:RNA)
RNA: B1 RNA with G25C, G26U, C27U, A29G, U30G
DNA 1: CAATCTGAATTCCGGTCTCCC
DNA 2: TGGTGGCTACGACGGGATT
B25: UUGGAGG (DNA:RNA)
RNA: B3 RNA with C26U, A27G, U28G, U29A
DNA 1: CAATCTGAATTCCGGTCTCCC
DNA 2: TGGTGGCTACGACGGGATT
B26: GUAAUCU (DNA:RNA)
RNA: B3 RNA with U25G, C26U, U28A, G30C, G31U
DNA 1: CAATCTGAATTCCGGTCTCCC
DNA 2: TGGTGGCTACGACGGGATT
B27: UGUACGU (DNA:RNA)
RNA: B3 RNA with C26G, A27U, U28A, U29C, G31U
DNA 1: CAATCTGAATTCCGGTCTCCC
DNA 2: TGGTGGCTACGACGGGATT
B28: AUUGGCG (DNA:RNA)
RNA: B1 RNA with G25A, G26U, C27U, A29G, U30C, A31G
DNA 1: CAATCTGAATTCCGGTCTCCC
DNA 2: TGGTGGCTACGACGGGATT
B29: GUAUUGA (DNA:RNA)
RNA: B3 RNA with U25G, C26U, G31A
DNA 1: CAATCTGAATTCCGGTCTCCC
DNA 2: TGGTGGCTACGACGGGATT
B30: GUCCCCA (DNA:RNA)
RNA: B1 RNA with G26U, G28C, A29C, U30C
DNA 1: CAATCTGAATTCCGGTCTCCC
DNA 2: TGGTGGCTACGACGGGATT
B31: GCACAAA (DNA:RNA)
RNA: B1 RNA with G26C, C27A, G28C, U30A
DNA 1: CAATCTGAATTCCGGTCTCCC
DNA 2: TGGTGGCTACGACGGGATT

target: T1, RBFOX1 RRM (Homo sapiens, UniProt Q9NWB1 109-208); assay: EMSA; HiTS-Eq, 1 nM pool, 10 min; buffer printed only for the single-RNA assays: 10 mM Tris pH 7.5, 150 mM NaCl, 3.4 mM EDTA, 0.001% NP-40, 30 C; details: tags: His6 N-terminal (pET28a); label: 5' 32P
T1 sequence: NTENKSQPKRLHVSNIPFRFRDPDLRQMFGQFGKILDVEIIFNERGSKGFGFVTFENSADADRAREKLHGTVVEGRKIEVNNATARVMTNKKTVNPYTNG
Summary of the method: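 Purified RbFox RRM, wild type or mutant, was incubated for 10 min in 50 µL with 1 nM of a 5′-radiolabelled RNA pool carrying 7 randomized nucleotides, whose flanks were annealed to DNA oligonucleotides, over a series of increasing protein concentrations. Unbound RNA was resolved on 8% native PAGE, cut out, reverse-transcribed, barcoded by PCR and sequenced on an Illumina HiSeq 2500. Relative association constants were derived from changes in read counts for each RNA species versus the control reaction and normalised to the cognate motif.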

Binder	binding signal
B1	0.00786 KA relative to UGCAUGU
B2	0.0114 KA relative to UGCAUGU
B3	0.014 KA relative to UGCAUGU
B4	0.0201 KA relative to UGCAUGU
B5	0.00206 KA relative to UGCAUGU
B6	0.014 KA relative to UGCAUGU
B7	0.00576 KA relative to UGCAUGU
B8	0.0042 KA relative to UGCAUGU
B9	0.00477 KA relative to UGCAUGU
B10	0.0242 KA relative to UGCAUGU
B11	0.00662 KA relative to UGCAUGU
B12	0.00392 KA relative to UGCAUGU
B13	0.0133 KA relative to UGCAUGU
B14	0.0186 KA relative to UGCAUGU
B15	0.00522 KA relative to UGCAUGU
B16	0.00995 KA relative to UGCAUGU

Binder	binding signal
B17	0.252 KA relative to UGCAUGU
B18	0.015 KA relative to UGCAUGU
B19	0.00418 KA relative to UGCAUGU
B20	0.00174 KA relative to UGCAUGU
B21	0.00563 KA relative to UGCAUGU
B22	0.0112 KA relative to UGCAUGU
B23	0.0205 KA relative to UGCAUGU
B24	0.00252 KA relative to UGCAUGU
B25	0.0111 KA relative to UGCAUGU
B26	0.00558 KA relative to UGCAUGU
B27	0.00969 KA relative to UGCAUGU
B28	0.0169 KA relative to UGCAUGU
B29	0.0118 KA relative to UGCAUGU
B30	0.0137 KA relative to UGCAUGU
B31	0.00369 KA relative to UGCAUGU
